Reference: PMC10726135
The other results are listed elsewhere or left out. At the low end of the ranking the order means little. The protein was read in a cell extract, so binding may be indirect.

What follows are sequences tested against T1, HNF4alpha2 (COS-7 nuclear extract) (UniProt P41235) (assay: protein-binding microarray). Details: COS-7 nuclear extract on double-stranded Agilent 4x180k PBM; binding buffer, salt, pH and temperature not given; high values mean tight binding; double strand, one strand shown; sequences stand for … in …GCCTAGGGAGATTAGAGTATCGGTCGA.
T1 sequence: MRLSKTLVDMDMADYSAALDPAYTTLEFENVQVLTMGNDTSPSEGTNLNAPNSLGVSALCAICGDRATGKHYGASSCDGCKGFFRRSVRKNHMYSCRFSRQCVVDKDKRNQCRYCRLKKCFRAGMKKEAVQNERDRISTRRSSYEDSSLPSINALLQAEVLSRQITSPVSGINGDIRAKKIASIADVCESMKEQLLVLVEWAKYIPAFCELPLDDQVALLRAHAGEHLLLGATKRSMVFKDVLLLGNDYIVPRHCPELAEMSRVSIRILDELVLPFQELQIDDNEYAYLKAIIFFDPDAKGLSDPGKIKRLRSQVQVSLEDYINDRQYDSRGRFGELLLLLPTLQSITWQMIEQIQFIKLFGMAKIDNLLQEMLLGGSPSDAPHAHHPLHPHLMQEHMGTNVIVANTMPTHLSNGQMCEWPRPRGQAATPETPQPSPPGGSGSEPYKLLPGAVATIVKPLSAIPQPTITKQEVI

Sequence | binding signal (log2 normalized intensity)
CAGGATTGGAGATCTGAACTCAAGCTCTTA | -1.12
AGCACTGGCATGCAGCAGGGGAATGGAGAC | -1.17
AGGCTGAAGTCCAGTAGCTCAATCAAGGTT | -0.0735
CCAAAGTCCAAGTTGGTGAGAACAGAGTCT | 1.33
AAATCTTACCTAAGGAAGTTAACCCCATCA | 2.69
CTCAAGGCCTTGGCTTGGAACTGACATGCT | -1.03
TCTTCAATACAGAGTCCAAATTCCTTGGTA | 2.82
CATGAAGCAATTCTGAGCCCAACCTCCCCA | 4.12
GCAAAGTACAAAGTACAGAGATGGCACAGA | 2.62
CTCAGCGGGAGGCAAGATAAGGGTAATCAC | -1.07
TCACCAAACTTCACAATGGGCCCCAGTAAA | -1.03
ATTTTCCCACTTGTATGTCCAAGGGTCACT | 4.44
ATCTGTATCAGCCTGTGACAAAGTCCATCT | 4.52
TGTGGCAAAGGTGAATGACCCCTCCCCTCC | 5.48
TCACTTTTATCACCATCTTGGTTTTGGTGG | 2.38
TGCTAAGAATGCGAACCATTTCCCATGGGA | -1.11
CCATGGTGTAATGGTTAGCACTCTGGACTC | 3.8
AAAACAAAGGAAACCAAACATTGAAATCTT | -1.12
TAAGCACACTAAGGCTAAAGATTACGAACT | -1.04
TGTGATGAAGGCAGAAAGAAAAGGGGACCT | -1.13
TTACGGTTAGGGTTAGGGTTAGGGTTAGGG | 1.3
CTTGTTATCTTGTCTCTTCTTGTACCTCTG | 2.05
AGCTCTCTTTGCTCTCCTCCTAATCACTGC | 0.549
GGCCTGATGGTGAGTTCTGTCCTTTGTCCC | 3.46
TTAACAAGGACAAAGGTCAACAAACGCCCC | 5.45

Sequence | binding signal (log2 normalized intensity)
AAGTCTGAAGGCAGGGCTTTTCCATTGACA | -1.09
GAAAAAAAACCATTGCAAATTGGATGTTGA | 1.27
AGGAGGTCAGAACTGTGGACTCGCTGCCTT | -0.0538
TACATGAGGAGTGAGAACAGACAAAATTAA | -0.4
AATCTCTGCACAGCATAGAAAACAAGTTAG | -0.942
TACCAGCCAATTAGAAGGCTCCCTGCTGCG | -1.05
AAACAGACCTCTCTCTCCCCAGACAGCCAC | 2.9
GGTATAAAGGTCAGGGATAGAACTGGTCCT | 0.723
TTTTCAACATATACTTTGAACTTGTTTTTT | 2.27
GGCCCCTGAGCACTGTCTCAGGGTCCACAT | 2.72
GGGCTTTTGTCACATTCCAGACTTTGTACA | 4.95
GAGCAGCACTTTTGGAGTTTGACCTGGAGC | 5.38
TTTGGAATTCCCTGCAAGGACAAAGGTCAT | 6.87
TCTGGGAGTGCCCTTGCCGAGAGCGGCTCG | -1.2
GCTGTTAGCTGAAGGACGTCAGAACTGTCC | -1.06
TGGAATCCAAAGTATTTTCTGTCTAGGTGC | 1.09
TCCCTGGTATGTACTTTCTTTTGGCTCTCT | 1.59
TGGCCTGGCATTTGAGACTAGCCACAATAG | -1.04
TTTGTGTGTGTGTGTGTGTGTCTGTAGTTT | 3.28
TCAATGTGATCAGGTGTGGGCATTAGCAGG | 0.838
GACGGGAGGAAAACTGGGCAAAGGTCAGGA | 4.92
TATGGATTAAATCTTGTTGGCTTGACGCTA | -1.04
AGCTCAATCAAGGTTCACTGCAGCCTTGAC | -1.07
AGCCTGAGCCACTTCACTGGTGTGATCTTT | 2.73
GGGCCAAGCTTAGGAATTCCAAGAAGGCAG | -0.931

Sequence | binding signal (log2 normalized intensity)
CCTCGACCTTCGGCTGGGGATGAAGGGGGC | -1.02
AGCAGACACTGAAAGATGGTATGCTCTGAT | -1.08
CAGTCCACATTTCTGAGCTGTGGAAACTCC | -1.15
ACTTTCTGTGTCTTGGCAGTGATCAGTGTT | 2.24
AAGGTTGGTGTGAACCAGGGTTAAGGTTTT | 1.25
AAGCCGTGGTGCTGTCCAAGGTGCTAGCTC | -1.1
AAGTTGTAAAGATACTGCTTTTAAGAAAAA | -0.727
TGCACCCCAGGTACGGAGGACAGCCACCCG | -1.08
GGTTAGAGGATGACCTTCCCTGCAGAAAAG | -0.738
CTTACAGACTCCTGCATATCCTGACTGCTG | -1.21
ACAGAGCAAGTAGAGCTGCTTACATTTTGC | -1.08
AAACAGATAACTGGGGGCAAAGGTTCACTT | 4.93
CATTGTAGCCTCAAATTCCTGGGCTCAAAC | -1.27
TGTTTAGGAGCCAATTATGCTGGCAGTAGG | 0.371
GATTTAATCCTCAAAAATGCTTTACAAGGT | -1.02
CTGTTACCACACCACAGCGGGGCCTCTGTG | -1.17
CTGCTTATCTCAACTGATTTACCTCTGACC | 2.39
TATGGTCTCTTCCAAAGCTGAAATGCCTCA | -1.09
GTGGAATCCTGCTAGCAGCTCTCTCCCTTA | -1.19
CTGCCCTTTGCCCTTTGGGAAGGGGCAAAA | 4.62
CCCCCAGGAGCGAGTCAAGGGTCAATCCTC | 3.43
CAACCCTGGCATAGCATGCCACGATGATTA | -1.2
AGCCTTATTCTTTGATCTCTTATCACCCTG | 1.86
TCGCTCCCCTCCTGTCAGTTTATTTACTGT | 1.71
TCCCCCAAACCAAAGAGAAATGGTGTGGAC | 2.14

Sequence | binding signal (log2 normalized intensity)
CAGATGCCTGCACACGGTGTCCAGATTCCA | -0.998
AGGTGTGCTGAGGAAACTGACAGGAAACTG | -1.17
ACTTCGCTGGAGGTGTTAAAGTGCCATTGA | 1.22
GAGGAGACAAAGGCCGCGCCCGCCCGCGCC | -1.04
AAAAACCTCTCTCCAGGTACAAGGATAAAT | -0.867
CACATTCCAGGAATATTCAGATATTCCTGG | -1.05
TGCAGGGAGGACAGACTCTGGGAGATAAAG | -1.04
CTTATCAGGCTCATTCTAACCCAAATGCAA | 2.07
TTCCAGAGCCTTCAAAGGAAAGCAGGTGTT | 0.55
ACTGTCAGCAGGGGGATCCACTTCCTATCC | -1.01
TCATGGAGGACTTTGGCCTTTTGTGAGATA | 5.04
CATCCCTCTCTTGCTGGGCCCCCAGATTGA | 2.42
TCGAGATGGCTAATCAGTATTGAGGCCGGA | -0.426
TTTGCAAGGTTTGTTCTTATCATGCTGTCT | 1.98
CACCCTTCCCTGAGTTTCCATTAACTGAAC | 0.899
CAGAATGACTTTCAGAAAGTCCTTGGAAAC | 0.96
CTCCGTCGTGGCCTGGCGTGGATTCCGAGC | -0.819
TTTGCCATAGATCCCACCATTCCCAGTTGT | 2.1
CTTTAACAAGGTGTGTTTGAGCAGGGGTGA | 1.27
ATGCATTTCCCTAGATCACTGTGTATTTGT | 2.32
TCCAGCCTGGGTGACAGAGTGAGACTCTAT | -0.711
TACTGACCTTTCTCCCTTTTCACAGGAGAG | 1.49
GGTAGTCGCCCTCCGTCGTGGCCTGGCGTG | -1.04
AAATTCTGCGGCGGAAGGACACAGATTCAG | -1.18
ATTCATTCAGCAAATATTGAATGTGTTACA | 1.29

Sequence | binding signal (log2 normalized intensity)
CCCCTTCCCACCTGCTGTCCAACCTCCTCC | 3.53
CTCATTACTAATCCTCTTCTGTCCTCCTGT | 1.56
CATCTCAGCTGTTATCTCTTTTGTGATAGA | 1.3
GGCTCCGCTGCTGCAGAGCAAAGCTGATAA | -1.2
GGGCGGGGGTGACCAGATTAATTACCCACA | -1.15
AGACATTCCAAACATGTTTCGAACGGTTGC | 0.627
GCCAGACTGGTTTTTCTTGGGTGTATGGGT | 2.02
TTGCTATGTCCCTGATGACATAATTTACGG | 0.169
CCAGATAAGAGCTATCAATGACCCATGTTT | 1.28
CAGGAGCCCTAGGAATCCTGACCAGGGGCC | -1.16
AAATACTTGTTATATTGGATAGTGCCTTTT | 1.6
TTCCCGGCAGCCCGCGCGTGGCCCAGCATG | -1.13
CAGATCCCAAAGGCATGAATAGAATGCAAC | -1.04
CAATTTCTTAGTAAACACTGCCACCGTGTG | -1.16
TCTACCATAGACCCTGTTGGTTTCTGGGAT | 1.07
ACCTTTGGGACATTCCCCAGGCTGCCCTGA | 1.15
GCAACCCCGTTTACTTTTGTACACACAGCA | -0.303
TCTGACCCTTGACCAAGCAGCTGTTTGACC | 3.24
GGAGTTAACTAACAAAAGCAGAGGAGTGGC | -1.21
CCCAGTACAAAGTTCACTTTCTTGTTTACT | 4.59
TCCCTGACAGACCCCTCCTACGTACCCTAG | 2.21
GGTTACAGGGTTCAACACGTGGTATTTTTC | 1.91
TTTAGAGCACAGTAATGTGATTTAATTCTG | 0.168
CTCCAGGACCTTGCCCTTTAGTTATCTCTT | 2.63
TCCAAAGGCCATCTGCTGGAGAATCCTCTC | -1.23

Sequence | binding signal (log2 normalized intensity)
GTACCTCCCGAAAGTGACCCTCTGCCCCCT | 6.3
CACTGCTCTAGGCATTGGAGATATGATAGC | -1.03
CCAGTTAGACATAGGTTATAAACTTGTTTG | 1.16
ATGACTACTTTAAAAGAAGATGCCTTTCAA | -1.06
AGGAGATAATGGGTGTAAGATACCTATGCC | -1.2
CACTACAAGCTTTGAAGGCAAGATAAAATA | -1.17
AAGCTTAGGAATTCCAAGAAGGCAGACTCA | -1.17
GAGTTGGGGACAAAGTTCAAGGTCCAGCCT | 5.28
GATTTGAAGGAGCAGAATAAGGCCCAGTGT | -1.16
GTCTCTCAGGCACAGCTCGACCTTTGACCT | 10.1
TTTGACATCCAAAGTTTCCTCTCCTGCCCT | 2.16
GCTTTGCGGAGAGGGTTCTCACTCCTCTAT | 0.0844
AGACAGTGTGGCAGAAAACGCAATTGCCCT | 1.47
TGACCACTCTGCCAGGTGACCACTCTGTAA | -0.858
ATAAGAAACCCAAGATTTGGTGTTACCTTT | 1.43
CTGCCCTTCCACCCACTTTATCTTCTATAG | 1.8
CTCTGAATAACTGCTTTGTGGCATCAGGGT | 0.92
TCCCCAGACAGCCACTGTTTGACGACTGTC | -1.04
AACGGGTTAGACGCACGGCAGAGCACCTGG | -1.09
CCGTCAATCTGCAGCCGCCGGAGAATTAAA | -0.683
